Results: PMC4336329 (PLoS ONE, 2015)
The whole screen tested about 310,000 compounds, of which about 2,200 (0.71%) showed an effect of 50% or more. Effects have a minus sign here. Some of the results follow.

molecular target: human ether-à-go-go-related gene (hERG) potassium channel (human, UniProt Q12809); experiment: primary screen, population patch clamp on CHO cells stably expressing hERG
Sequence (Q12809 whole entry, looked up): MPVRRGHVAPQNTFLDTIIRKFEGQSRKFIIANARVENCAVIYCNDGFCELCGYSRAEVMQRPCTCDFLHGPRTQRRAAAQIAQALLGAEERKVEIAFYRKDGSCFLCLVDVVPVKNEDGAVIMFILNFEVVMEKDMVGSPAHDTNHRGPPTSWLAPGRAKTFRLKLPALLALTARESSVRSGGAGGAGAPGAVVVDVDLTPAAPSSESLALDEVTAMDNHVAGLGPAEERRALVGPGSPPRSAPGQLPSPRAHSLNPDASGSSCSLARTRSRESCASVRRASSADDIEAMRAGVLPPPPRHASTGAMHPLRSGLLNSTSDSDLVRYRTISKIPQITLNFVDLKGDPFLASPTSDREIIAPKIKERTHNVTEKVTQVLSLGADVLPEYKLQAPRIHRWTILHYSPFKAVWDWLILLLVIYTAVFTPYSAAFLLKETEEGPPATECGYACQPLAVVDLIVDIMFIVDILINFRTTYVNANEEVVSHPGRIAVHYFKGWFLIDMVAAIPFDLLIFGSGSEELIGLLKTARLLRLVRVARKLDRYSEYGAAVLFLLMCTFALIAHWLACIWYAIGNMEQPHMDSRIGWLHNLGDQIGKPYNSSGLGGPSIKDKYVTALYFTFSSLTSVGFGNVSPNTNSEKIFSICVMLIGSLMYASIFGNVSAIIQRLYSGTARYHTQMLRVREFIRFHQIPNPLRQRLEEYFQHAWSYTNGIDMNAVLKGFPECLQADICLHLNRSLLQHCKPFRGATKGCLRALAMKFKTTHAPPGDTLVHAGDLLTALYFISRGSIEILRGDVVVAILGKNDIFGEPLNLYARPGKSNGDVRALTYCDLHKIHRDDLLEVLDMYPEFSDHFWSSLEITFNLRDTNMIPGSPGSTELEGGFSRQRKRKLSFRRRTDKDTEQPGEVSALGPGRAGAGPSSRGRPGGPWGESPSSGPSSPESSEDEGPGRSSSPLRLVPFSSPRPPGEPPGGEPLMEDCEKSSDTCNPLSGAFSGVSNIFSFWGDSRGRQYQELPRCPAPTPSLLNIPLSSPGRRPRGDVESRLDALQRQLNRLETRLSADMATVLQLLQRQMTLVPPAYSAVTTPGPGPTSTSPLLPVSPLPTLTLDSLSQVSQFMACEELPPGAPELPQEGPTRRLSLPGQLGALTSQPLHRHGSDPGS

Row | Structure (SMILES) | hERG current change (%, negative = inhibition) at 1uM
1 | COc1ccc(CCNC(=O)c2csc3c2CCCC3)cc1 | 8.79%
2 | O=C(NCc1ccccn1)c1cc(-n2cnnc2)ccc1Cl | 9.18%
3 | CCCCSP1(=S)NCCCN1 | 12.3%
4 | Cc1cccc(NC(=S)NCc2ccncc2)c1C | 11.1%
5 | O=c1c(Cc2ccc(F)cc2)c(O)ccn1CCc1ccccn1 | 9.19%
6 | COC(=O)c1ccc(C2c3c(oc4ccc(F)cc4c3=O)C(=O)N2CCO)cc1 (stereo not shown) | 4.81%
7 | COCCNC(=O)c1ccccc1NC(=O)Nc1ccccc1 | 4.16%
8 | COc1ccccc1OCCn1cc(C#N)c2ccccc21 | 12.3%
9 | Cc1ccccc1Nc1nc2ccccc2n1C(C)C | 0.498%
10 | O=C(NNC(=O)C1CC=CCC1C(=O)O)c1ccc(Cl)cc1 (stereo not shown) | 7.83%
11 | Cc1cc(C)nc(Nc2ncc(O)n2-c2ccc(Br)cc2)n1 | 24%
12 | CCOC(=O)Cc1csc(NC(=O)c2c(O)c3ccccc3n(CC(C)C)c2=O)n1 | 3.02%
13 | Cc1noc(C)c1S(=O)(=O)NCc1ccc2c(c1)OCO2 | 0.814%
14 | Cc1nnc(NC(=O)c2c(-c3ccccc3Cl)noc2C)s1 | 6.82%
15 | O=C(O)c1ccccc1C(=O)NC1=NN(c2ccccc2)CC1 | -0.2%
16 | O=S(=O)(/C=C/c1ccccc1)Oc1ccccc1 | -2.84%
17 | Cc1cc(C)c2c(N)c(C(=O)N/N=C/c3cccs3)sc2n1 | 11%
18 | COc1cccc(C(=O)N2CCN(C(=O)Cc3ccccc3)CC2)c1.O=C(O)C(=O)O | 7.14%
19 | CC(OC(=O)Cc1c[nH]c2ccccc12)C(=O)NC1CCCCC1C (stereo not shown) | 12.6%
20 | CCOC(=O)CSc1nc(N)c2c3c(sc2n1)CCCC3 | -0.605%

Row | Structure (SMILES) | hERG current change (%, negative = inhibition) at 1uM
21 | CCCC(O)(CCN1CCOCC1)c1ccc(Br)cc1.Cl (stereo not shown) | 7.3%
22 | O=c1cc(CO)oc(C(Nc2ccccn2)c2cccc(F)c2)c1O (stereo not shown) | -0.0884%
23 | CN(C)c1ccc(C2C3C(=O)N(c4ccc(C(=O)O)cc4)C(=O)C3ON2c2ccccc2)cc1 (stereo not shown) | 9.6%
24 | CCOC(=O)c1ccc(NC(=O)CCc2nc(-c3ccc(Cl)cc3)no2)cc1 | 8.98%
25 | O=C(O)C(C/C(=N/O)c1ccc(Br)cc1)P(=O)(c1ccccc1)c1ccccc1 (stereo not shown) | 11.4%
26 | O=C(O)CC(NC(=O)C1c2ccccc2Oc2ccccc21)c1ccc(Cl)cc1 (stereo not shown) | 4.83%
27 | COc1ccc(S(=O)(=O)N2CCN(CCOc3ccc(Br)cc3)CC2)cc1OC | 0.25%
28 | Cc1occc1-c1nnc(SCC(=O)c2ccc3c(c2)OCCO3)n1CC1CCCO1 (stereo not shown) | 0.261%
29 | CCC(=NCCC1=CCCCC1)c1c(O)[nH]c(=O)[nH]c1=O | -4.06%
30 | Cc1cc(Cl)ccc1OCc1nc(-c2ccncc2)no1 | 8.18%
31 | COc1ccc(CCNCC(O)COc2cccc(C(C)=O)c2)cc1OC.O=C(O)C(=O)O (stereo not shown) | 16%
32 | O=C(CN1C(=O)C2CC=CCC2C1=O)NCc1cccs1 (stereo not shown) | 10.8%
33 | O=C(CN1CCN(Cc2ccccc2F)C1=O)NCC1CCCO1 (stereo not shown) | 9.72%
34 | C/C(=N/Nc1ccc(Cl)cc1)c1cnnc(-c2ccccc2)n1 | 19.6%
35 | N#Cc1c(-c2ccccc2)cc(-c2ccccc2)nc1SCC(=O)O | 14.3%
36 | COc1ccc(NCc2nnc(SCC(=O)N3CCCc4ccccc43)o2)cc1 | 3.64%
37 | COC(=O)c1cc(NC(=O)Nc2ccccc2)ccc1Cl | 9.56%
38 | Cc1ccc(-c2nc(CS(=O)CC(=O)NCc3ccc(Cl)cc3)c(C)o2)cc1 (stereo not shown) | 5.91%
39 | Cc1noc(C)c1C(=O)Nc1ccc(F)cc1 | 23.9%
40 | CCOC(=O)c1ccccc1NC(=O)c1cc2ccccc2o1 | 15.6%

Row | Structure (SMILES) | hERG current change (%, negative = inhibition) at 1uM
41 | CCCOc1ccc(C(=O)CCC(=O)Nc2ccc(N3CCN(C)CC3)cc2)cc1 | 1.17%
42 | CCOc1ccccc1C(=O)NCC(=O)NNC(=O)CN(C)S(=O)(=O)c1ccc(Cl)cc1 | 7.26%
43 | Br.O=C(Cn1c(NCCO)nc2ccccc21)c1ccc(F)cc1 | 12.2%
44 | Cc1noc(C)c1COC(=O)c1cccnc1Cl | 11.9%
45 | CN(CC(=O)NCCc1ccc(Cl)cc1)S(=O)(=O)c1ccc2c(c1)c(=O)n(C)c(=O)n2C | -0.657%
46 | O=C(N/N=C/c1c[nH]c2ccccc12)c1ccccc1O | 12.3%
47 | O=C(NCc1cccnc1)c1ccccc1NC(=O)c1c(F)cccc1F | 8.41%
48 | COC(=O)c1ccc2c(=O)n(CCN3CCOCC3)c(SCC(=O)Nc3ccccc3Cl)nc2c1 | 8.04%
49 | CCC(C)(C)C1CCC2(CC1)NC(=S)N(c1ccccc1)N2 (stereo not shown) | 11.1%
50 | CCCn1c(C(C)Nc2nc(-c3ccc(C)cc3)cs2)nc2cc(Cl)c(N3CCCCC3)cc21 (stereo not shown) | 24.8%
51 | Cc1ccc2nc(SCC(=O)Nc3cc(C)on3)c(C)cc2c1 | 16.7%
52 | O=C(Cn1cnc2ccccc2c1=O)NCC(=O)N1CCOCC1 | -4.19%
53 | CCCCCn1c(=NC(C)=O)c(C#N)cc2c(=O)n3ccccc3nc21 | 0.0455%
54 | COc1ccc(S(=O)(=O)N(C)CC(=O)NCc2ccco2)cc1OC | 13.9%
55 | Cc1cc(=O)oc2cc(OC(C)C(=O)NCCCN3CCCC3=O)c(Cl)cc12 (stereo not shown) | 12.6%
56 | CCNC(=O)CC1C(=O)N(c2ccc(C)cc2)C(=O)N1CCC(C)C (stereo not shown) | 7.2%
57 | CCN(CC)N=Nc1ccc(S(=O)(=O)[N-]c2nc(C)cc(C)n2)cc1.[K+] | -2.71%
58 | CC(C)(C)NNC(=S)Nc1cccc(F)c1 | 11.1%
